Data set [1] deals with the molecule itself. Description: SEC-MALS + other: negative-stain EM; SEC-MALS on a Shodex 804 column in SEC buffer, Hsp27 40 µM; negative-stain EM of Hsp27 at 1 µM in SEC buffer. (In general: In gel filtration, larger molecules generally elute earlier.)
Data set [2] concerns the molecule itself. Description: not stated; oligomeric state of Hsp27 GPG, ΔNTD and ΔNTD GPG (Supplementary Figure 8B, 8C); method not given.

B1: Hsp27 3D (pseudo-phosphorylation mutant S15D, S78D, S82D) (natural protein)
chain: not shown
notes: Human Hsp27 (HSPB1) in which three serines (S15, S78 and S82) are replaced with aspartate; Vector was a gift of the Dickey laboratory; Compared throughout with the full-length wild type, so probably the whole protein
For the protein B1, in data set [1], the binding result is listed as “binds”.

B2: Hsp27 ΔNTD ([…]) (domain or fragment)
chain: not shown
notes: Human Hsp27 (HSPB1) without the N-terminal domain, […]; Heterogeneous mixture of 3–5 mers; source: E. coli BL21 (DE3), purified (Ni-NTA, size exclusion)
As for B2, in data set [2], the stoichiometry N – broadly, the number of molecules, sites or subunits per partner or assembly – is 3 to 5.

(Values after article PMC6212398 (Nature Communications, 2018).)
